Test results reported in US6106844A, “Immunomodulatory peptides of vespid antigen 5” (The Rockfeller University, priority 1998, dated 2000).
Not every detail of the peptide structures is certain; ends, links or a residue may be inferred. Some compounds share one wording; it may come from a single statement. Ends that are not written are not given here.

Assays:
Type in all cases: cell-based
[1] = tested on: r-Ag5 specific spleen cells from mice of different strains; experiment: Summary of proliferation indices across mouse strains; details: four strains BALB/c, ASW/Sn, C3H/He, P/J, C57B1/6 excluded
Text: Summary of proliferation indices of r-Ag5 specific spleen
cells from mice of different strains on stimulation with the
dominant T cell epitope peptides^1
^1 Dominant T cell epitopes are defined as those peptides which showe
stimulation indices of ≥4 in at least one of 5 strains of mice
The present Example defines indices of 4 or greater for proliferation of Ag5- specific cells as containing a T cell epitope of Ag5. With this definition, the data in FIGS. 3-13 for mice of 5 strains with different haplotypes would indicate that the T cell epitopes of Ag5 are distributed throughout the entire molecule. As C57B1/6 mice is a poor responder, its data are excluded in the following comparison.
The data in Table 4 indicate that 14 peptides contain T cell epitopes of Ag5. Three of these peptides are recognized by three of the four strains tested, five of them by two strains and the remaining six by only one strain. […] They are peptides 1, 2, 5, 6, 9, 15, 20 and 18. […] This is particularly apparent for peptides 6, 20, and 18.

[2] = tested on: r-Ag5 specific spleen cells from ASW/Sn mice; experiment: In vitro proliferation assay, spleen cells of r-Ag5-immunized ASW/Sn mice; details: spleen cells from mice immunized 5 times with rAg5; blank 5640 cpm
Protocol: (§1) FIG. 11. Stimulation index profile of ASW/sn mice spleens after 5 immunizations with r-Ag5. In vitro proliferation assays were performed with peptides at three concentrations: 1×10^-5 M (open bar), 1.25×10^-6 M ("uphill" hatch), and 1.56×10^-7 M ("downhill" hatch). The corresponding concentrations of recombinant Antigen 5 were 1.0×10^-6 M, 1.25×10^-7, and 1.56×10^-8 M. The blank was 5640 cpm.
(§2) The peptides of the invention can be tested in a proliferation assay for T cell responses. Generally, lymphocytes from a sensitized host are obtained. The host can be a mouse that has been immunized with a vespid venom antigen 5, or with a crossreactive protein, such as testes specific protein. Using techniques that are well known in the art, T lymphocyte response to the peptide can be measured in vitro. In a specific embodiment, infra, T cell responses are detected by measuring incorporation of ^3 H-thymidine, which increases with DNA synthesis associated with proliferation. Cell proliferation can also be detected using an MTT assay [Mossman, J. Immunol. Methods, 65:55-63,(1983); Niks and Otto, J. Immunol. Methods, 130:140-151 (1990)]. Alternatively, lymphokine production assays can be practiced according to the present invention. In one embodiment, lymphokine production can be assayed using immunological or co-stimulation assays [see, e.g., Fehlner et al., J. Immunol., 146:799 (1991)] or using the ELISPOT technique [Czerkinsky, et al., J. Immunol. Methods, 110:29 (1988)]. Alternatively, mRNA for lymphokines can be detected, e.g., by amplification [see Brenner, et al., Biotechniques, 7:1096 (1989)] or in situ hybridization [see, e.g., Kasaian and Biron, J. Immunol., 142:1287 (1989)]. Of particular interest are those individuals whose T cells produce lymphokines associated with IgE isotype switch events, e.g., IL-4 and IL-5 [Purkeson and Isakson, J. Exp. Med., 175:973-982 (1992)]. Also of interest are the peptide fragments of the vespid venom antigen 5 that contain epitopes recognized by T cells involved in IgE switch events. Any method for detecting T cell proliferation known in the art can be used with the immunodominant vespid antigen 5 peptides obtained according to the present invention.
(§3) In the present Example, a series of 15 to 20-residue peptides with 10-residue overlaps to encompass the entire white faced hornet Ag5 molecule (form 2) was synthesized. These peptides were used for mapping T cell epitopes of hornet Ag5 by their stimulation of specific murine spleen cells immunized with native or recombinant Antigen 5. These peptides were also used to study the cross reacting T cell epitopes of hornet antigen 5 and a mouse testis protein Tpx [Mizuku et al., Mammalian Genome, 3:274-280 (1992)].
(§4) T cell response in mice of different haplotypes to recombinant hornet Ag5. FIGS. 11 to 13 show the proliferative response of spleen cells for mice of ASW/Sn, P/J, and C3H/He, respectively. The results for ASW/Sn mice in FIG. 11 indicate that there are four peptides with stimulation indices of ≥4: peptides 6, 7, 9, and 18. The results for P/J mice in FIG. 12 show multiple peptides with stimulation indices of ≥4: peptides 1, 2, 5, 9, 12, 13, 14, 15, 20, and 17. The data for C3H/He mice in FIG. 12 indicate three peptides with stimulation indices of ≥4: peptides 2, 5 and 15.

[3] = tested on: Ag5 specific spleen cells from BALB/c mice; experiment: In vitro proliferation assay, spleen cells of Ag5-immunized BALB/c mice; details: for stimulation indices (FIG. 4-6 together): BALB/c mice immunized 4 times with n-Ag5 or with r-Ag5; for Stimulation Index BALB/c: spleen cells from mice immunized with rAg5, blank 3970 cpm; for Stimulation Index BALB/c (values in parentheses): spleen cells from 4 times rAg5 immunized mice
Protocol: FIG. 4. Stimulation index profile of BALB/c mice spleens after 4 immunizations with natural (n)-Ag5. In vitro proliferation assays were performed with peptides at three concentrations: 1×10^-5 M (open bar), 1.25×10^-6 M ("uphill" hatch), and 1.56×10^-7 M ("downhill" hatch). The corresponding concentrations of recombinant antigen 5 control were 1.0×10^-6 M, 1.25×10^-7, and 1.56×10^-8 M. The blank was 2200 cpm.
as §1, with “FIG. 5.” for “FIG. 11.”, “of BALB/c” for “of ASW/sn”, “after 4” for “after 5”, “with recombinant (r)-Ag5.” for “with r-Ag5.”, “was 4700” for “was 5640”
FIG. 6. […] In vitro proliferation assays were performed with peptides at three concentrations: 1×10^-5 M (open bar), 1.25×10^-6 M ("uphill" hatch), and 1.56×10^-7 M ("downhill" hatch). The corresponding concentrations of recombinant Antigen 5 were 1.0×10^-6 M, 1.25×10^-7, and 1.56×10^-8 M. […]
as §2, §3
T cell response in BALB/c mice to natural hornet Ag5 and its recombinant protein or fragments. FIGS. 4 and 5 show the proliferative responses of spleen cells from BALB/c mice immunized 4 times with n- and r-Ag5 respectively. […] Previous studies have shown that r-Ag5 lacks the discontinuous B cell epitopes of n-Ag5, as r-Ag5 is not properly folded with the disulfide bonds of n-Ag5 [King et al., J. Immunol., 154:577-584 (1995)]. […] Higher proliferative responses were observed than those in FIG. 5, where mice were immunized 4 times with r-Ag5. […]

[4] = tested on: r-Ag5 specific spleen cells from C57B1/6 mice; experiment: In vitro proliferation assay, spleen cells of r-Ag5-immunized C57B1/6 mice; details: spleen cells from mice immunized 5 times with rAg5; blank 1050 cpm
Protocol: as §1, with “14.” for “11.”, “CS7B1/6” for “ASW/sn”, “1.56×10 ^-7” for “1.56×10^-7”, “1050” for “5640”
as §2, §3

[5] = tested on: r-Ag5 specific spleen cells from C3H/He mice; experiment: In vitro proliferation assay, spleen cells of r-Ag5-immunized C3H/He mice; details: spleen cells from mice immunized 5 times with rAg5; blank 3130 cpm
Protocol: as §1, with “13.” for “11.”, “C3H/He” for “ASW/sn”, “3130” for “5640”
as §2, §3, §4

[6] = tested on: Tpx-N primed spleen cells from BALB/c mice; experiment: In vitro proliferation assay, Tpx-N primed spleen cells; details: BALB/c mice after 4 immunizations with r-fragment Tpx-N (residue 14-106)
Protocol: FIG. 15. Stimulation index profile of BALB/c mice spleen cells after 4 immunizations with Tpx-N. Stimulation was tested with peptide or protein at three different concentrations: Open bars--1.0×10^-5 M peptide or Frag IN, 2.5×10^-6 M Tp X-N; "uphill" hatch--1.25×10^-6 M peptide or Frag IN. 3.13×10^-7 M, Tpx-N; "downhill" hatch--1.5×10^-7 M peptide and Frag IN, 3.91×10^-8 M Tpx-N; and stippled --1.96×10^-8 M Frag IN, 4.89×10^-9 M Tpx-N. The blank was 7270 cpm.
as §2, with “Also of interest are the peptide fragments of the vespid venom antigen 5 that contain epitopes recognized by T cells involved in IgE switch events. Any method for detecting T cell proliferation known in the art can be used with the immunodominant vespid antigen 5 peptides obtained according to the present invention.” left out

[7] = tested on: r-Ag5 specific spleen cells from P/J mice; experiment: In vitro proliferation assay, spleen cells of r-Ag5-immunized P/J mice; details: spleen cells from mice immunized 5 times with rAg5; blank 1730 cpm
Protocol: as §1, with “12.” for “11.”, “P/J” for “ASW/sn”, “1.0 ×10^-6” for “1.0×10^-6”, “1730” for “5640”
as §2, §3
T cell response in mice of different haplotypes to recombinant hornet Ag5. […]

Sequence: FRKVGHYTQMVWGKT [Peptide 20, FRKVGHYTQMVWGKT]
- recognition by more than one mouse strain (stimulation indices of ≥4) [1]: recognized by two or three strains of mice
- recognition by more than one mouse strain (stimulation indices of ≥4) ([1]; listed as SEQ ID NO:23): dominant in more than one strain of mouse
- Stimulation Index ASW/Sn [2]: 1.7
- stimulation indices (FIG. 4-6 together) [3]: ≥ 4
- Stimulation Index BALB/c [3]: 6.5
- Stimulation Index C57B1/6 [4]: 2.1
- Stimulation Index C3H/He [5]: 2.8

Sequence: NYKVGLQNSNFRKVGHYTQM [Peptide 15]
- recognition by more than one mouse strain (stimulation indices of ≥4) [1]: recognized by two or three strains of mice
- recognition by more than one mouse strain (stimulation indices of ≥4) ([1]; listed as SEQ ID NO:22): dominant in more than one strain of mouse
- Stimulation Index ASW/Sn [2]: 1.4
- stimulation indices (FIG. 4-6 together) [3]: ≥ 4
- Stimulation Index BALB/c [3]: 5.6
- Stimulation Index C57B1/6 [4]: 2.8

Sequence: AKNMNVLVWNDELAKIAQTW [Peptide 8]
- stimulation indices, Tpx-N primed spleen cells (FIG. 15) [6]: about 3

Sequence: KQWEDEVTEFNYKVGLQNSN [Peptide 14]
- Stimulation Index ASW/Sn [2]: 2.3
- Stimulation Index BALB/c [3]: 2.3
- Stimulation Index C57B1/6 [4]: 2.0
- Stimulation Index C3H/He [5]: 2.9

Sequence: KEIGCGSIKYIEDNWYTHYL [Peptide 17]
- Stimulation Index ASW/Sn [2]: 1.6
- Stimulation Index BALB/c (values in parentheses) [3]: 1.1
- Stimulation Index C57B1/6 [4]: 2.4
- Stimulation Index C3H/He [5]: 3.6

Sequence: FRQNVAKGLETRGKPGPQPP [Peptide 6]
- recognition by more than one mouse strain (stimulation indices of ≥4) [1]: recognized by two or three strains of mice
- recognition by more than one mouse strain (stimulation indices of ≥4) ([1]; listed as SEQ ID NO:13): dominant in more than one strain of mouse
- stimulation indices (FIG. 4-6 together) [3]: ≥ 4
- Stimulation Index BALB/c [3]: 5.8
- Stimulation Index P/J [7]: 2.2
- Stimulation Index C57B1/6 [4]: 1.9
- Stimulation Index C3H/He [5]: 2.0

Sequence: CRNTAKYQVGQNIAISSTTA [Peptide 11]
- Stimulation Index ASW/Sn [2]: 0.9
- stimulation indices (FIG. 4-6 together) [3]: ≥ 4
- Stimulation Index BALB/c [3]: 5.8
- Stimulation Index P/J [7]: 1.4
- Stimulation Index C57B1/6 [4]: 2.7
- Stimulation Index C3H/He [5]: 3.0

Sequence: QNIAISSTTATQFDRPSKLI [Peptide 12]
- Stimulation Index ASW/Sn [2]: 1.4
- Stimulation Index BALB/c [3]: 2.5
- Stimulation Index C57B1/6 [4]: 2.5
- Stimulation Index C3H/He [5]: 3.3

Sequence: KNEILKRHNDFRQNVAKGLE [Peptide 5]
- recognition by more than one mouse strain (stimulation indices of ≥4) [1]: recognized by two or three strains of mice
- recognition by more than one mouse strain (stimulation indices of ≥4) ([1]; listed as SEQ ID NO:12): dominant in more than one strain of mouse
- Stimulation Index ASW/Sn [2]: 1.4
- stimulation indices (FIG. 4-6 together) [3]: ≥ 4
- Stimulation Index BALB/c [3]: 9.3
- Stimulation Index C57B1/6 [4]: 1.7

Sequence: TQFDRPSKLIKQWEDEVTEF [Peptide 13]
- Stimulation Index ASW/Sn [2]: 1.2
- Stimulation Index BALB/c (values in parentheses) [3]: 1.3
- Stimulation Index C57B1/6 [4]: 2.5
- Stimulation Index C3H/He [5]: 3.6
